Assay results reported in the antibiotic and cytotoxicity screens of Wong et al. (2023).
Some of the results follow.

system: S. aureus RN4220; assay: growth inhibition call (relative growth <= 0.2); details: 50 µM

Growth inhibition call, inactive:
Cc1ccc(S(=O)(=O)N2C[C@H](O)COC[C@H]3O[C@H](CC(=O)N4CCc5ccccc5C4)CC[C@@H]32)cc1, COc1ccc(S(=O)(=O)Nc2ccc3c(c2)C(=O)N([C@H](C)CO)C[C@H](C)[C@H](CN(C)C(=O)c2ccccc2)OCCCC[C@@H](C)O3)cc1, NNC(=O)c1ccc(C(=O)NO)cc1, C[C@@H]1CCCCO[C@@H](CN(C)Cc2ccncc2)[C@@H](C)CN([C@H](C)CO)C(=O)c2cc(NC(=O)Nc3ccc(C(F)(F)F)cc3)ccc2O1, N[C@@H](CO)c1ccccc1, CO[C@H]1O[C@H](COS(=O)(=O)O)[C@@H](O[C@@H]2O[C@@H](C(=O)O)[C@@H](O[C@H]3O[C@H](COS(=O)(=O)O)[C@@H](O[C@@H]4O[C@H](C(=O)O)[C@@H](O[C@H]5O[C@H](COS(=O)(=O)O)[C@@H](O)[C@H](O)[C@H]5NS(=O)(=O)O)[C@H](O)[C@H]4O)[C@H](OS(=O)(=O)O)[C@H]3NS(=O)(=O)O)[C@H](O)[C@H]2OS(=O)(=O)O)[C@H](O)[C@H]1NS(=O)(=O)O, NC(=S)N1CCCC1, C[C@@H]1CN([C@@H](C)CO)C(=O)c2cc(NC(=O)Nc3cccc4ccccc34)ccc2O[C@H]1CN(C)Cc1ccccc1, Cc1ccc(S(=O)(=O)N2C[C@@H](O)COC[C@@H]3O[C@H](CC(=O)N[C@H]4CCN(Cc5ccccc5)C4)CC[C@H]32)cc1, Cc1ccc(S(=O)(=O)Nc2ccc3c(c2)CC(=O)N([C@H](C)CO)C[C@@H](C)[C@@H](CN(C)Cc2ccc(Oc4ccccc4)cc2)O3)cc1, CCCCNC(=O)N1C[C@@H]2[C@H](CN)[C@@H]2C1, Cc1ccc(S(=O)(=O)Nc2ccc3c(c2)C(=O)N([C@H](C)CO)C[C@@H](C)[C@@H](CN(C)S(=O)(=O)c2ccc(C)cc2)OCCCC[C@H](C)O3)cc1, CC=Cc1ccc2n(c1=O)C[C@H]1[C@H](CO)[C@@H](C(=O)NCCc3cn(C)cn3)[C@@H]2N1C(=O)C1CC1, C[C@H](C(=O)N(C)C[C@H]1OCc2ccccc2-c2c(n(C)c3ccccc23)C(=O)N([C@H](C)CO)C[C@H]1C)c1ccccc1, NNC(=O)CCCCCCC(=O)NO, Cc1cc(=O)oc2cc(O[C@H]3O[C@@H](CO)[C@@H](O)[C@@H](O)[C@@H]3O)ccc12, C[C@@H]1CN([C@H](C)CO)C(=O)c2cc(NC(=O)CCC(F)(F)F)ccc2O[C@@H](C)CCCCO[C@@H]1CN(C)Cc1ccc(C(F)(F)F)cc1, COS(=O)(=O)[O-].COc1cc(N)cn[n+]1-c1ccccc1, Cc1ccc(S(=O)(=O)Nc2cccc3c2O[C@H](CN(C)C(=O)NC(C)C)[C@@H](C)CN([C@H](C)CO)C3=O)cc1, COC(=O)C(CCCN1C(=O)c2ccccc2C1=O)(NC(C)=O)c1nn[nH]n1 (stereo not given), COc1ccc(CN(C)C[C@H]2OCCCC[C@H](C)Oc3ccc(NS(=O)(=O)c4ccc(F)cc4)cc3C(=O)N([C@@H](C)CO)C[C@@H]2C)cc1, C[C@@H]1CCCCO[C@@H](CN(C)Cc2ccccc2)[C@H](C)CN([C@@H](C)CO)C(=O)c2cc(NC(=O)C3CCCCC3)ccc2O1, CCCn1c(=O)c(C)cn2nc(N)nc12, N[C@@H](COP(=O)(O)O)C(=O)O, Cc1ccc(S(=O)(=O)N(C)C[C@@H]2OCCCC[C@@H](C)Oc3ccc(NS(=O)(=O)c4ccc(Cl)cc4)cc3C(=O)N([C@H](C)CO)C[C@H]2C)cc1, C[C@H]1CN([C@@H](C)CO)C(=O)c2cccc(NC(=O)Nc3cccc4ccccc34)c2O[C@H]1CN(C)C(=O)Nc1cccc2ccccc12, C[C@@H]1CCCCO[C@@H](CN(C)Cc2ccncc2)[C@@H](C)CN([C@@H](C)CO)C(=O)c2cc(NS(=O)(=O)c3ccc(Cl)cc3)ccc2O1, CNC[C@H]1OCCCC[C@@H](C)Oc2ccc(NC(=O)c3ccncc3)cc2C(=O)N([C@H](C)CO)C[C@H]1C, COc1ccc(NC(=O)Nc2ccc3c(c2)C(=O)N([C@H](C)CO)C[C@H](C)[C@H](CN(C)C(=O)Nc2cccc4ccccc24)O3)cc1, COc1ccc2c3c(n(c2c1)C)[C@@H](CO)N(C[C@]13CN(C1)C(=O)C)C(=O)CN1CCOCC1, Cc1noc(C)c1NC(=O)N(C)C[C@H]1Oc2ccc(NC(=O)Nc3cccc4ccccc34)cc2CC(=O)N([C@H](C)CO)C[C@H]1C, COc1ccccc1C#Cc1cnc2c(c1)C(=O)N([C@H](C)CO)C[C@H](C)[C@H](CN(C)C(=O)CN(C)C)O2, Cc1cc(C(=O)Nc2cccc3c2O[C@H](CN(C)C(=O)Nc2ccc4c(c2)OCO4)[C@H](C)CN([C@H](C)CO)C3=O)n(C)n1, C[C@@H]1CN([C@@H](C)CO)C(=O)c2cc(NC(=O)C3CCCCC3)ccc2O[C@@H](C)CCCCO[C@H]1CN(C)S(=O)(=O)c1ccc(Cl)cc1, O=C(C[C@H]1CC[C@H]2[C@@H](COC[C@@H](O)CN2S(=O)(=O)c2ccc(Cl)cc2)O1)NCc1ccncn1, CNC[C@@H]1OCCCC[C@H](C)Oc2ccc(NS(=O)(=O)c3c(C)noc3C)cc2C(=O)N([C@@H](C)CO)C[C@@H]1C, C[C@H](CO)N1C[C@H](C)[C@@H](CN(C)S(=O)(=O)c2ccc(C(F)(F)F)cc2)OCc2ccccc2-c2c(n(C)c3ccccc23)C1=O, Brc1ccc(-c2ccc(Br)s2)s1, Oc1cc(O)c2c(c1)O[C@H](c1ccc(O)c(O)c1)[C@H](O)[C@H]2c1c(O)cc(O)c2c1O[C@H](c1ccc(O)c(O)c1)[C@@H](O)C2, O=C(O)c1cc2ncc(CCO)cn2n1
